Assay results as given in article PMC7819943, “Rice protein-binding microarrays: a tool to detect cis-acting elements near promoter regions in rice”.
This is one part of the list.

molecular target: T1, OsWOX13 (Oryza sativa, UniProt Q5QMM3 1-267); test: protein-binding microarray (RPBM); PBS, 2% BSA, 51.3 ng/ul salmon testes DNA, 50 uM zinc acetate, 200 nM TF, 25 C, 1 h; high values mean tight binding; details: protein: recombinant; tags: N-terminal polyhistidine and DsRed monomer fusion (pET32a); label: CyDye5-dUTP incorporated in the synthesized complementary strand; 3' TTTTT single-stranded linker to array surface; dsDNA, one strand shown
T1 sequence: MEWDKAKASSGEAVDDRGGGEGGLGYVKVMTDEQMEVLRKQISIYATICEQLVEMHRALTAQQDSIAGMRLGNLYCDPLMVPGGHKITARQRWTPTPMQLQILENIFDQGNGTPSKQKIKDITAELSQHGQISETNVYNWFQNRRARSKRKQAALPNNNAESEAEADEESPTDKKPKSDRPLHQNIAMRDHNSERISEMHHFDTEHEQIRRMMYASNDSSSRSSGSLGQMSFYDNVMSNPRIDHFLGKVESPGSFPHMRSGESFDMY
Method in brief: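 The binding signal is fluorescence intensity per feature, in arbitrary units, read on an Axon 4000B scanner. Polyhistidine- and DsRed-tagged transcription factors (N-terminal fusions) from E. coli BL21-CodonPlus were purified on Ni–NTA and applied at 200 nM for 1 h at 25 °C to a double-stranded, BSA-blocked custom Agilent array in buffer with 50 µM zinc acetate.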

| Sequence | binding signal |
| --- | --- |
| CGTATGATTTCCAAATACAAACAATGTGAGACGCACTTGACGGAGTCACCTAGTGCAG | 3540 fluorescence intensity (a.u.) |
| GTTGATTTATTTTAGGGGTATAAAAGAAGGGCTATGGTGTCGGAGTCACCTAGTGCAG | 39900 fluorescence intensity (a.u.) |
| TTGATGCAGTGATGATTGCATAGTTTCAAGGGACAAGGCCCGGAGTCACCTAGTGCAG | 8660 fluorescence intensity (a.u.) |
| ACATCATTGACATAATATGATTTAACAACAAACAATTTAGCGGAGTCACCTAGTGCAG | 34800 fluorescence intensity (a.u.) |
| TTCGGAATTTTGGGAATGAGATTAGATTTGGCTCCCATCGCGGAGTCACCTAGTGCAG | 3190 fluorescence intensity (a.u.) |
| CTTAATTAATAGTAGAAGATATCAACTGATTCGCTGGAAGCGGAGTCACCTAGTGCAG | 21900 fluorescence intensity (a.u.) |
| CCATGAATAACAAAATGATTAGAAGTGGAAATCCTTCATGCGGAGTCACCTAGTGCAG | 7440 fluorescence intensity (a.u.) |
| ATAACTATTAATGTGATATGGAAGAAATTAATGGTGTCCACGGAGTCACCTAGTGCAG | 5200 fluorescence intensity (a.u.) |
| ATTATTAACATGTGACAGCGACTCATTTTATGATATATTGCGGAGTCACCTAGTGCAG | 4890 fluorescence intensity (a.u.) |
| ACAATTGATACCCCTGACACTGATTGAAGCATTGTGTGGCCGGAGTCACCTAGTGCAG | 33200 fluorescence intensity (a.u.) |
| CCCAATTAACGTCCAGATCAATCGAATCATCCCTCCCCTACGGAGTCACCTAGTGCAG | 11400 fluorescence intensity (a.u.) |
| TACAACAAATCAATAATACTCAATTTCCATGTAGTTTGATCGGAGTCACCTAGTGCAG | 7890 fluorescence intensity (a.u.) |
| CAAGATAGCAATTGATTTACAGCGTATCGATCTATTTGTACGGAGTCACCTAGTGCAG | 24500 fluorescence intensity (a.u.) |
| AGCCATCGATTTGAGATTTGATTAGTAATTCGGAGGAGGACGGAGTCACCTAGTGCAG | 20000 fluorescence intensity (a.u.) |
| GCAATCAATTATTCCGCCGCTCTCCAGCGACGCAATTGCGCGGAGTCACCTAGTGCAG | 11700 fluorescence intensity (a.u.) |
| TAGATTACTAGATTAGCTAGGTTCTTGTAGTATACGTAGCCGGAGTCACCTAGTGCAG | 4940 fluorescence intensity (a.u.) |
| GTGTCCATCAATTAATAACAGAAAGAAGAAGAGGATCCGGCGGAGTCACCTAGTGCAG | 22800 fluorescence intensity (a.u.) |
| GAGTTACGCGCGCTTAATTAGCTTAGACACAGCTAGAGGACGGAGTCACCTAGTGCAG | 4350 fluorescence intensity (a.u.) |
| TGATGTTAAATTATGTCTTTTGTTACCTACAGTCAAAGGGCGGAGTCACCTAGTGCAG | 6580 fluorescence intensity (a.u.) |
| TTAGATTTGTCATTAATCACCGAATCCAAATTAAGGCACTCGGAGTCACCTAGTGCAG | 30700 fluorescence intensity (a.u.) |
| AACCAGATTGTAAACTGTGAAATTCGGTTCGATATGAATGCGGAGTCACCTAGTGCAG | 4890 fluorescence intensity (a.u.) |

| Sequence | binding signal |
| --- | --- |
| GGACCATAGATTAATCATTTAAGCACTAATTAAGTGAGGACGGAGTCACCTAGTGCAG | 19800 fluorescence intensity (a.u.) |
| TAAATTAGATGAAAATAAATTTGAATAGATGCTTGTCCAGCGGAGTCACCTAGTGCAG | 21500 fluorescence intensity (a.u.) |
| CTAAACAATTTAGAATGACAACTATACTACGACGGAGGGACGGAGTCACCTAGTGCAG | 5960 fluorescence intensity (a.u.) |
| ATGTACTAGTAATTGAGTGGAGCTTTGATCGATTGAAAGGCGGAGTCACCTAGTGCAG | 17100 fluorescence intensity (a.u.) |
| TACTGATTTTCTTTATGTCTCTTTGTGGTCCCTTTGCAGTCGGAGTCACCTAGTGCAG | 18300 fluorescence intensity (a.u.) |
| GTGCTTAATTTATTGGTATTTGTTTGTTACTTTGATTACGCGGAGTCACCTAGTGCAG | 36400 fluorescence intensity (a.u.) |
| GGACGTATATATACATTGATTAATACCAAATCCTCAGCACCGGAGTCACCTAGTGCAG | 4520 fluorescence intensity (a.u.) |
| ATGTGATGATGAGTAGTGGGTTAGTTGGTAGGTAGGCCGCCGGAGTCACCTAGTGCAG | 9740 fluorescence intensity (a.u.) |
| AACACTTGATTGGATCAGGAGGTACAAATGAATTATTTATCGGAGTCACCTAGTGCAG | 27800 fluorescence intensity (a.u.) |
| GGATTGATTAGGATTAGGATTAGAGCATTGTTCCGGTCCACGGAGTCACCTAGTGCAG | 32200 fluorescence intensity (a.u.) |
| CATACGCAACTTAATTATCTACTCCTTCTGGGCATAATTACGGAGTCACCTAGTGCAG | 3800 fluorescence intensity (a.u.) |
| GCTATACAATTAAATAGATAATCCACGACAATAATATCCTCGGAGTCACCTAGTGCAG | 3700 fluorescence intensity (a.u.) |
| CAACTACATTTATCTTTCTCAATCAAGTAATCTCTCATGTCGGAGTCACCTAGTGCAG | 7250 fluorescence intensity (a.u.) |
| GAAGCAAACAAACATGATTGATAACAGAATGGTCCTTTCCCGGAGTCACCTAGTGCAG | 28000 fluorescence intensity (a.u.) |
| GTAAACTTTAATTAACCCTGTGCACATGGCATCCTCTTATCGGAGTCACCTAGTGCAG | 14000 fluorescence intensity (a.u.) |
| CTAAGAGTAAGTAGATTGATTTTAACCAAAATCAAAACGACGGAGTCACCTAGTGCAG | 14200 fluorescence intensity (a.u.) |
| GACCAAATCATGGCCTAATCACGCGAAAACCCGCGCTTTCCGGAGTCACCTAGTGCAG | 17000 fluorescence intensity (a.u.) |
| CCGTAATTGAGAGTGAAACTAAAATCATCTCAGTCAAATTCGGAGTCACCTAGTGCAG | 32400 fluorescence intensity (a.u.) |
| CTAATTAACCAGTAAATTATAAACAAAAGCGTATTTTGAACGGAGTCACCTAGTGCAG | 24700 fluorescence intensity (a.u.) |
| TCAATTATGATTATAGATAATTACGATGGACGACTGTCAACGGAGTCACCTAGTGCAG | 16600 fluorescence intensity (a.u.) |
| AGTATATCTACAATAATTATAATTTATTGCAACTACGCTGCGGAGTCACCTAGTGCAG | 22000 fluorescence intensity (a.u.) |
